PMC12040169 (PLOS Biology, 2025)
The list shows a part of the results.

Test system: T1, C. trachomatis L2/434/Bu expressing GFP (CTL2-GFP)
T1 construct: L2/434/Bu GFP intracellular growth in HeLa cells
Set-up: species or system HeLa; C. trachomatis total inclusion area by high-content imaging, normalised to DMSO
Details: total inclusion area; 28.5 h, 10 µM; inhibitor
Summary of the method: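 Following bulk GFP and resorufin fluorescence reads, infected cells were fixed, Hoechst-stained and imaged on a high-content platform. Inclusion total area and number per well served as growth proxies; nuclei counts indicated host viability. MICs were derived as for the fluorescence assay.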

Row | Compound | % of control remaining
1 | CC(=O)Nc1cc(NC(=O)CCCC(=O)O)ccc1Cl [CBK263949] | 102.069
2 | CNc1sc(C(=O)c2ccc(OC)c(OC)c2)c(N)c1C#N [CBK270194] | 86.5303
3 | CCOC(=O)N1CCC(NC(=O)c2cnn3c(C)c(Cc4ccccc4)c(C)nc23)CC1 [CBK160293] | 94.5309
4 | COc1c(Cl)cc(Cl)cc1CNCc1cccnc1 [CBK270142C] | 120.888
5 | CC(C)(C)OC(=O)NC1CCC(NCc2c[nH]c(-c3ccccc3)n2)CC1 (centres unmarked) [CBK056692] | 107.034
6 | O=C(CN1C(=O)N2CCCN=C2c2ccccc21)NC1CCCC1 [CBK284397] | 73.8909
7 | O=C(O)CN1C(=O)S/C(=C\c2ccc([N+](=O)[O-])o2)C1=O [CBK017858] | 51.647
8 | O=S(=O)(c1ccccc1)c1ccccc1C(F)(F)F [CBK085887] | 89.5793
9 | CC(C)(C)OC(=O)N1CCC(CNS(=O)(=O)c2cccs2)CC1 [CBK086019] | 47.8801
10 | O=C(c1nc(SCc2ccccc2)ncc1Cl)N1CCN(c2cccc(Cl)c2)CC1 [CBK268712] | 84.2067
11 | O=C(Cc1ccccc1Oc1ccccc1)Nc1cnc(-c2ccc(F)cc2)c(-c2ccco2)n1 [CBK037194] | 86.118
12 | O=C(Oc1ccc(Cl)cc1)c1cc(S(=O)(=O)N2CCOCC2)ccc1Cl [CBK261670] | 93.1063
13 | Oc1cc(Cc2ccccc2)cnc1CN1CCOCC1 [CBK288173] | 93.898
14 | CC(=O)N1CCN(c2nc3ccccc3s2)CC1 [CBK287362] | 96.531
15 | CCOC(=O)c1c[nH]c2nc(COc3ccccc3)nn2c1=O [CBK268088] | 93.9743
16 | O=C(O)/C=C\C(=O)Nc1ccccc1C(=O)N1CCOCC1 [CBK287067] | 117.15
17 | N#Cc1ccc(C(=O)N2C[C@@H]3C[C@H](C2)c2ccc(-c4cccs4)c(=O)n2C3)cc1 [CBK289180] | 139.322
18 | Cc1nc(C2CCCCN2C(=O)CCc2ccccc2)ncc1C(=O)Nc1ccc(F)cc1 (centres unmarked) [CBK285870] | 94.4226
19 | Cc1nc(Cc2nc(-c3ccc4c(c3)CCCN4S(C)(=O)=O)cs2)cs1 [CBK304542] | 47.169
20 | CC(C)(C)OC(=O)N1CCC(Oc2ccc(CN)cc2)CC1 [CBK004131] | 33.8603
21 | COCCNC(=O)c1ccc(-c2ccccc2)nc1NCC1CC1 [CBK106242] | 103.199
22 | N#CCC(=O)N1CCN(Cc2ccc3c(c2)OCO3)CC1 [CBK074447] | 91.9743
23 | Cc1ccc(S(=O)(=O)NC(C)C(=O)NCc2ccco2)cc1 (centres unmarked) [CBK266514] | 81.4836
24 | c1cc(CNCCN2CCOCC2)cs1 [CBK001894] | 108.368
25 | O=C(c1cc(-c2ccc(Cl)cc2)[nH]n1)N1CCN(c2ncccn2)CC1 [CBK116551] | 109.877
26 | COC(=O)c1c(C)[nH]c(C(=O)N2CCCC2c2cccnc2)c1C (centres unmarked) [CBK296639] | 68.5593
27 | CCN(CC)CCN(C(=O)NCCc1c[nH]c2ccc(OC)cc12)C(C)c1ccc(OC)c(OC)c1 (centres unmarked) [CBK158948] | 90.2475

Row | Compound | % of control remaining
28 | O=C(CSc1nc2[nH]ncc2c(=O)n1-c1ccccc1)Nc1ccc(F)c(Cl)c1 [CBK266453] | 60.7151
29 | O=C(Nc1cccc(F)c1)c1cc2ccccc2cc1O [CBK016863] | 86.3869
30 | Cc1nc(C)c(C(=O)N2CCC(c3cc4c(C)cccc4cn3)CC2)o1 [CBK285186] | 63.6215
31 | COc1ccc(COc2nc3ccccc3nc2NC(C)C)cc1OC [CBK116610] | 105.352
32 | Cc1ccc(Nc2ncc(C(=O)NCc3ccccn3)c3ccccc23)cc1Cl [CBK291113] | 122.488
33 | Cc1ccc(Oc2c([N+](=O)[O-])c(C)nn2C)c(Br)c1 [CBK000283] | 90.5921
34 | OCCOc1nc2ccccc2s1 [CBK001812] | 93.0958
35 | O=C(C1CCCN(c2nc3c(-c4ccccc4)csc3c(=O)[nH]2)C1)N1CCOCC1 (centres unmarked) [CBK215582] | 110.558
36 | CCc1nccn1CCC(=O)Nc1ccc2c(c1)nc(CC)n2CC [CBK281629] | 117.924
37 | CC(C)NS(=O)(=O)c1ccc(NS(=O)(=O)c2cccc(C(=O)O)c2)cc1 [CBK296950] | 80.0003
38 | COc1ccccc1-c1ccc(NC(=O)CCc2ccc3c(c2)n(C)c(=O)n3C)cc1 [CBK286527] | 96.4329
39 | CC(C(=O)N1c2ccccc2Sc2ccccc21)N1C(=O)c2ccccc2C1=O (centres unmarked) [CBK018045] | 75.9462
40 | O=[N+]([O-])c1ccc(NCCNS(=O)(=O)c2ccccc2)cc1 [CBK261948] | 98.7052
41 | O=[N+]([O-])c1ccc(Sc2nnc(-c3cccs3)n2CC2CCCO2)cn1 (centres unmarked) [CBK297483] | 55.4173
42 | O=C(Nc1cccnc1)N1CCc2ccccc2C1 [CBK155312] | 103.684
43 | Cc1ccccc1-n1nc(-c2ccc(NC(=O)c3ccccc3)cc2)cc1NC(=O)c1ccccc1 [CBK261264] | 94.5466
44 | Cc1nc(C)c(-c2csc(Nc3ncccn3)n2)s1 [CBK263297B] | 83.2432
45 | CC(=O)Nc1nc(CN2CCOC(c3ccc(F)cc3)C2)cs1 (centres unmarked) [CBK305591] | 67.4109
46 | O=C(COc1cccc([N+](=O)[O-])c1)Nc1cc(C(=O)O)cc(C(=O)O)c1 [CBK263604] | 100.607
47 | Oc1ccc(CN2CCN(c3ccc(F)cc3)CC2)c2cccnc12 [CBK267985] | 105.158
48 | Cc1nnc(SCCn2c(N3CCCCC3)nc3c2c(=O)n(C)c(=O)n3C)s1 [CBK269288] | 118.414
49 | CCOC(=O)c1cccc(-c2ccc(OC(F)(F)F)cc2)n1 [CBK149251] | 107.28
50 | O=C(O)CCN1CCCC2(CCN(C(=O)Cc3c[nH]c4ccccc34)C2)C1 (centres unmarked) [CBK137138] | 98.5799
51 | CN(C)c1cccc(-c2ccc(Nc3cccc(NC(=O)c4ccncc4)c3)nc2)c1 [CBK037721] | 28.805
52 | Cc1cc(CNC(=O)N2CCCC(CO)C2)no1 (centres unmarked) [CBK156028] | 84.9197
53 | Cc1nn(C)cc1-c1cncn1CCCn1ccnc1C(C)C [CBK281972] | 99.8432
54 | CC(C)C(=O)NCCn1nc(-c2ccco2)ccc1=O [CBK283863] | 103.75

Row | Compound | % of control remaining
55 | CCCn1nc(C)cc1NC(=O)c1ncoc1-c1ccc(F)cc1 [CBK282361] | 100.029
56 | CN(C)C1(c2nnnn2CCOC(=O)Nc2ccc(Cl)cc2)CCCCC1 [CBK266093] | 88.1356
57 | CCCCCC(=O)Nc1ccc(S(=O)(=O)Nc2nnc(CC)s2)cc1 [CBK045478] | 18.0658
58 | COc1cc(NC(=O)CC2SC(NC3CCCCC3)=NC2=O)c(OC)cc1Cl (centres unmarked) [CBK059497] | 82.9924
59 | CCNc1nc(-c2ccsc2)cn2ccnc12 [CBK037375] | 91.6919
60 | CN(C)C(=O)c1cc2cc(NC(=O)CC3COCCN3)ccc2s1 (centres unmarked) [CBK306710] | 59.0579
61 | Cc1ccccc1-n1ccn(S(=O)(=O)C(C)C)c1=O [CBK106566] | 103.889
62 | Cc1ccc(-c2nc(Nc3ccc(Br)cc3)sc2CC(=O)O)cc1 [CBK264251] | 103.132
63 | O=C(c1cc2c(F)cccc2[nH]1)N1CCC(Oc2cccnc2)CC1 [CBK281468] | 84.7996
64 | O=C(c1ccc2ncccc2c1)N1CCN(c2ncccn2)CC1 [CBK144503] | 106.703
65 | O=C(c1ccc([N+](=O)[O-])cc1)n1nc(-c2cccnc2)nc1NCc1ccc(F)cc1 [CBK268962] | 109.729
66 | COc1ccccc1NC(=S)NCCc1ccccn1 [CBK265358] | 96.823
67 | COC1CCCC(C(=O)N2CCC(c3onc4c3CCC4)CC2)C1 (centres unmarked) [CBK285519] | 94.4278
68 | O=C(CN1C(=O)c2ccc([N+](=O)[O-])cc2C1=O)Nc1cccc2c1C(=O)N(c1ccccc1)C2=O [CBK265576] | 88.2091
69 | O=S(=O)(Nc1cccc2cc[nH]c12)c1cc(Cl)ccc1Cl [CBK153581] | 94.6056
70 | COc1nccnc1N1CCN(CCc2c[nH]c3ccccc23)CC1 [CBK084231] | 79.6088
71 | COc1ccc(S(=O)(=O)Nc2ccc(C(=O)O)c(O)c2)cc1[N+](=O)[O-] [CBK299771] | 102.571
72 | COc1cc(/C=N/c2ccc(O)c(-c3nc4ccccc4s3)c2)ccc1OC(=O)c1ccc(Cl)cc1Cl [CBK261243] | 107.227
73 | CC(C)(C)NC(=O)C1C2CCC3(CC(=O)c4cc(Cl)ccc4O3)C21 (centres unmarked) [CBK284963] | 83.6312
74 | Cc1ccccc1-c1ccc2n(c1=O)C[C@H]1C[C@@H]2CN(C(=O)CCC(=O)O)C1 [CBK289181] | 97.3991
75 | O=c1[nH]c2ncc(-c3ccsc3)nc2n1Cc1ccccc1 [CBK064227] | 120.377
76 | Cc1ccc(C(=O)CC(C(=O)O)c2c(C)[nH]c3ccccc23)cc1 (centres unmarked) [CBK269337] | 103.248
77 | CC(=O)N1CC[C@H]2NC(=O)CNC(=O)C3(CCCC[C@H]2C1)CCN(Cc1ccc(Cl)cc1)CC3 [CBK292119] | 112.522
78 | CCC(=O)N(C)C1CCN(c2ncnc3ccccc23)CC1 [CBK304829] | 96.4982
79 | O=C(NCCO)NC(=S)c1ccccc1 [CBK267213] | 107.618
80 | COCCNC(=O)c1cc2n(n1)C(C(F)(F)F)CC(c1ccccc1)N2 (centres unmarked) [CBK307610] | 69.5552
